Reference: patent US20080090900A1, “ANTIBIOTIC BUSHRIN” (University of Karachi, priority 2006, published 2008)

Key:
[1] = tested on: MRSA methicillin resistant staphylococcus aureus; assay: microbe, parasite or virus in culture; conditions: read-out: Sensitivity (width of inhibition zone)
[2] = tested on: MRSA methicillin resistant staphylococcus aureus; assay: microbe, parasite or virus in culture; format: cell-based

Q: For Cc1cc(O)c2c(c1)C=CC(C)(c1ccoc1)C2 (centres unmarked) [Compound 1, 7-(3-furyl)-3,7-dimethyl-7,8-dihydro-1-naphthalenol], which zone of inhibition at 150 µg/disc [1] is on record?
A: Its zone of inhibition at 150 µg/disc is 18 to 30 mm.

Q: And the MIC [2]?
A: The MIC was 60 mg/L (≈ 250 µM).

In brackets after ≈: the same amount, converted by molar mass.
